The antibiotic and cytotoxicity screens of Wong et al. (2023)
The list shows a part of the results.

Experiments:
HSkMC = human skeletal muscle cells; test: cytotoxicity call (relative viability < 0.9); details: 10 µM
HepG2 = test: cytotoxicity call (relative viability < 0.9); details: 10 µM
S. aureus RN4220 = test: growth inhibition call (relative growth <= 0.2); details: 50 µM

Structure (SMILES)	cytotoxicity call (HSkMC)	cytotoxicity call (HepG2)	growth inhibition call (S. aureus RN4220)
COc1ccc(S(=O)(=O)N(C)C[C@H]2Oc3c(NC(=O)C4CCOCC4)cccc3C(=O)N([C@H](C)CO)C[C@H]2C)cc1	inactive	inactive	inactive
Cc1noc(C)c1S(=O)(=O)Nc1ccc2c(c1)C(=O)N([C@@H](C)CO)C[C@@H](C)[C@@H](CN(C)S(=O)(=O)c1c(C)noc1C)O2	inactive	inactive	inactive
Cc1ccc(S(=O)(=O)Nc2ccc3c(c2)C(=O)N([C@H](C)CO)C[C@H](C)[C@@H](CN(C)C(=O)Nc2ccc(C(F)(F)F)cc2)OCCCC[C@H](C)O3)cc1	inactive	inactive	inactive
C[C@H](CO)N1C[C@H](C)[C@@H](CN(C)C(=O)Nc2cccc3ccccc23)Oc2ccc(NC(=O)Nc3ccccc3)cc2C1=O	inactive	inactive	inactive
COc1ccc(S(=O)(=O)Nc2ccc3c(c2)C(=O)N([C@@H](C)CO)C[C@H](C)[C@H](CN(C)S(C)(=O)=O)OCCCC[C@@H](C)O3)cc1	inactive	inactive	inactive
C[C@@H]1CN([C@H](C)CO)C(=O)c2cccc(NS(=O)(=O)c3cccs3)c2O[C@@H]1CN(C)Cc1ccncc1	inactive	inactive	inactive
Cc1noc(C)c1S(=O)(=O)N(C)C[C@H]1Oc2ccc(NS(C)(=O)=O)cc2C(=O)N([C@H](C)CO)C[C@@H]1C	inactive	inactive	inactive
c1cnc(N2CC[N+]3(CCCC3)CC2)nc1	inactive	inactive	inactive
C[C@H]1CN([C@@H](C)CO)C(=O)c2c(c3ccccc3n2C)-c2ccccc2CO[C@@H]1CN(C)C(=O)Nc1ccccc1C(F)(F)F	inactive	inactive	inactive
Cc1noc(C)c1NC(=O)N(C)C[C@H]1Oc2c(NC(=O)Nc3cccc4ccccc34)cccc2C(=O)N([C@H](C)CO)C[C@H]1C	inactive	inactive	inactive
C[C@@H]1CN([C@H](C)CO)C(=O)Cc2cc(NC(=O)Cn3cnnn3)ccc2O[C@@H]1CN(C)S(=O)(=O)c1cn(C)cn1	inactive	inactive	inactive
COc1ccc(-c2cc(C(F)F)nn2-c2ccc(S(N)(=O)=O)cc2)cc1F	inactive	inactive	inactive
Cc1ccc(S(=O)(=O)N(C)C[C@@H]2OCCCC[C@@H](C)Oc3ccc(NC(=O)Cc4ccccc4)cc3C(=O)N([C@@H](C)CO)C[C@@H]2C)cc1	inactive	inactive	inactive
COc1cccc(-c2cc(=O)c3cc(OC)ccc3o2)c1	inactive	inactive	inactive
C[C@@H]1CCCCO[C@H](CN(C)C(=O)Nc2cccc3ccccc23)[C@H](C)CN([C@@H](C)CO)C(=O)c2cc(NC(=O)Nc3cccc4ccccc34)ccc2O1	inactive	inactive	inactive
CCOc1cc(C)nc(N)n1	inactive	inactive	inactive
COc1ccc(CN(C)C[C@@H]2Oc3ccc(NC(=O)CCCCCC(=O)Nc4ccccc4N)cc3CC(=O)N([C@H](C)CO)C[C@@H]2C)cc1	inactive	inactive	inactive
C[C@H](CO)N1C[C@H](C)[C@H](CN(C)S(=O)(=O)c2cn(C)cn2)Oc2ncc(C#Cc3cccc(F)c3)cc2C1=O	inactive	inactive	inactive
C[C@@H]1CCCCO[C@H](CN(C)C(=O)C2CCCCC2)[C@@H](C)CN([C@@H](C)CO)C(=O)c2cc(NC(=O)Nc3ccccc3)ccc2O1	inactive	active	inactive

Structure (SMILES)	cytotoxicity call (HSkMC)	cytotoxicity call (HepG2)	growth inhibition call (S. aureus RN4220)
COc1cccc(C(=O)Nc2ccc3c(c2)C(=O)N(C)[C@H]2CC[C@H](CC(=O)NCC4CC4)O[C@@H]2CO3)c1	inactive	inactive	inactive
C[C@@H]1CN([C@H](C)CO)C(=O)c2cc(NC(=O)C3CCCCC3)ccc2O[C@@H](C)CCCCO[C@@H]1CN(C)Cc1ccc2c(c1)OCO2	inactive	active	inactive
COc1ccc(NC(=O)Nc2ccc3c(c2)C(=O)N([C@H](C)CO)C[C@@H](C)[C@H](CN(C)S(=O)(=O)c2ccc(OC)cc2)OCCCC[C@@H](C)O3)cc1	inactive	active	inactive
C[C@H]1CN([C@@H](C)CO)C(=O)Cc2cc(NC(=O)NC3CCCCC3)ccc2O[C@H]1CN(C)C(=O)Nc1ccc(C(F)(F)F)cc1	inactive	inactive	inactive
CCc1c(O)cc(O)c(C(=O)c2ccc(OCCN3CCOCC3)c(OC)c2)c1CC(=O)N(CCOC)CCOC	active	active	inactive
C[C@@H]1CN([C@@H](C)CO)C(=O)c2cc(NS(=O)(=O)c3ccc(F)cc3)ccc2O[C@@H](C)CCCCO[C@H]1CN(C)Cc1ccc(C(=O)O)cc1	inactive	inactive	inactive
C[C@H]1CN([C@@H](C)CO)C(=O)c2cccc(NS(=O)(=O)c3ccccc3)c2O[C@H]1CN(C)S(C)(=O)=O	inactive	inactive	inactive
CC(C)NC(=O)N(C)C[C@H]1Oc2c(NS(=O)(=O)c3ccc(F)cc3)cccc2C(=O)N([C@@H](C)CO)C[C@H]1C	inactive	inactive	inactive
C[C@@H]1CN([C@@H](C)CO)C(=O)c2cccc(NS(=O)(=O)c3cn(C)cn3)c2O[C@H]1CN(C)C(=O)Nc1ccc(F)cc1	inactive	inactive	inactive
COc1ccc(NC(=O)N(C)C[C@@H]2OCc3cnnn3CCCC(=O)N([C@@H](C)CO)C[C@H]2C)c(OC)c1	inactive	inactive	inactive
C[C@H](O)C#Cc1cnc2c(c1)C(=O)N([C@@H](C)CO)C[C@@H](C)[C@H](CN(C)Cc1cncnc1)O2	inactive	inactive	inactive
Cc1ccc(S(=O)(=O)Nc2ccc3c(c2)C(=O)N([C@H](C)CO)C[C@@H](C)[C@H](CN(C)C(=O)Nc2cccc4ccccc24)O3)cc1	inactive	active	inactive
C[C@@H](CO)N1C(=O)[C@@H]2[C@H]3C(=O)OCC=C[C@H]3O[C@]23C=CCN(C(C)(C)C)C(=O)[C@@H]13	inactive	inactive	inactive
Cn1c(=O)cc(N2CCCC(N)C2)n(Cc2ccccc2C#N)c1=O.O=C(O)c1ccccc1 (stereo not drawn)	inactive	active	inactive
Cc1noc(C)c1NC(=O)Nc1ccc2c(c1)C(=O)N([C@H](C)CO)C[C@@H](C)[C@H](CN(C)S(=O)(=O)c1ccccc1)OCCCC[C@H](C)O2	inactive	inactive	inactive
C#CCN([C@H](/C=C/C1CC1)[C@@H](O)CCn1cc(CCC(=O)NO)nn1)[C@@H](Cc1ccccc1)C(=O)OC	inactive	inactive	inactive
COc1ccc(S(=O)(=O)N(C)C[C@@H]2Oc3ccc(NC(=O)Cn4cnnn4)cc3C(=O)N([C@@H](C)CO)C[C@@H]2C)cc1	inactive	inactive	inactive
Cc1nc(N)c(C(=O)O)nc1C	inactive	inactive	inactive
S=c1ccss1	inactive	inactive	active

Structure (SMILES)	cytotoxicity call (HSkMC)	cytotoxicity call (HepG2)	growth inhibition call (S. aureus RN4220)
C[C@H](CO)N1C[C@H](C)[C@@H](CN(C)S(=O)(=O)c2ccc3c(c2)OCCCO3)OCc2cn(nn2)CCCC1=O	inactive	inactive	inactive
CN1C(=O)c2cc(NC(=O)c3ccc(F)cc3)ccc2OC[C@H]2O[C@@H](CC(=O)N3CCOCC3)CC[C@H]21	inactive	inactive	inactive
COCC#Cc1cnc2c(c1)C(=O)N([C@H](C)CO)C[C@H](C)[C@H](CN(C)C(=O)c1ccc3c(c1)OCO3)O2	inactive	inactive	inactive
C[C@@H]1CN([C@@H](C)CO)C(=O)c2cc(C#CC3(O)CCCC3)cnc2O[C@@H]1CN(C)C(=O)Cc1cccnc1	inactive	inactive	inactive
COc1ccc(NC(=O)N(C)C[C@@H]2Oc3ccc(NC(=O)Cn4cnnn4)cc3C(=O)N([C@@H](C)CO)C[C@H]2C)cc1	inactive	inactive	inactive
CCOC(=O)CCn1cc(F)c(=O)[nH]c1=O	inactive	inactive	inactive
COCC#Cc1cnc2c(c1)C(=O)N([C@H](C)CO)C[C@@H](C)[C@H](CN(C)S(=O)(=O)c1cccc(OC)c1)O2	inactive	inactive	inactive
O=C(N[C@@H]1CC(=O)N(C2CC2)C1)C1CCC1	inactive	inactive	inactive
Cn1cnc([N+](=O)[O-])c1Cl	inactive	inactive	inactive
Cc1noc(C)c1NC(=O)Nc1ccc2c(c1)C(=O)N([C@@H](C)CO)C[C@@H](C)[C@@H](CN(C)S(=O)(=O)c1ccc(F)cc1)OCCCC[C@H](C)O2	inactive	inactive	inactive
Cc1noc(C)c1NC(=O)Nc1ccc2c(c1)CC(=O)N([C@@H](C)CO)C[C@@H](C)[C@H](CN(C)Cc1ccc(Oc3ccccc3)cc1)O2	inactive	inactive	inactive
C[C@@H]1CN([C@H](C)CO)C(=O)c2cc(NS(=O)(=O)c3ccc(F)cc3)ccc2O[C@@H]1CN(C)S(=O)(=O)c1ccc(F)cc1	inactive	inactive	inactive
CC(C)CC#Cc1cnc2c(c1)C(=O)N([C@H](C)CO)C[C@H](C)[C@H](CN(C)C(=O)CN1CCOCC1)O2	inactive	inactive	inactive
NC(=O)N1CCc2n[nH]c(C(=O)N3CCOCC3)c2C1	inactive	inactive	inactive
[N-]=[N+]=Nc1ccccc1[C@@H]1OC(c2ccc(OCCCO)cc2)=N[C@]1(Cc1ccccc1)C(=O)NC[C@@H](O)CO	inactive	inactive	inactive
OCc1ccccc1O[C@@H]1O[C@H](CO)[C@@H](O)[C@H](O)[C@H]1O	inactive	inactive	inactive
Cc1ccc(S(=O)(=O)Nc2cccc3c2O[C@@H](CN(C)C(=O)NC(C)C)[C@H](C)CN([C@H](C)CO)C3=O)cc1	inactive	inactive	inactive
C[C@@H]1CCCCO[C@H](CN(C)Cc2ccc(C(F)(F)F)cc2)[C@@H](C)CN([C@H](C)CO)C(=O)c2cc(NC(=O)CCCCCC(=O)Nc3ccccc3N)ccc2O1	inactive	inactive	inactive
